From patent publication US20220289848A1 (published 2022)

Key:
[1] = biological target: PD-L1 expressed on CHO-K1 cells (UniProt Q9NZQ7); assay: FACS binding, CHO-K1 cells expressing PD-L1
[2] = biological target: CD47 expressed on CHO-K1 cells (UniProt Q08722); assay: FACS binding, CHO-K1 cells expressing CD47; flat curve

Sequence of UniProt Q9NZQ7 (Q9NZQ7 19-290): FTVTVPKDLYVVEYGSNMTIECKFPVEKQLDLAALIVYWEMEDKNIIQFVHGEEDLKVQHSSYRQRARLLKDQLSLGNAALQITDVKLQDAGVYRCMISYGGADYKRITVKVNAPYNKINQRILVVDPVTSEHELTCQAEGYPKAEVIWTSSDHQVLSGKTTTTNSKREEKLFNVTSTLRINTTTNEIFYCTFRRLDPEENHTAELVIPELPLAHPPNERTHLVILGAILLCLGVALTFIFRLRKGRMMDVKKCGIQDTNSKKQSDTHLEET

B1: sdAb-PDL1b-IgG4PE (Fc fusion)
chain: EVQLVESGGGLVQPGGSLRLSCAASGRTFVTYGMGWFRQAPGKGREFVSAISWSGSSTSYGDSVKGRFTISRDNAKNTLYLQMNSLRPEDTAVYYCAAALGAVVYTTREPYTYWGQGTLVTVSS[omitted - human IgG4 Fc with changes]
Binder B1 has an EC50 [1] of 2.22 nM and an EC50 [2] of ~498 nM.

B2: sdAb-PDL1c-IgG4PE (Fc fusion)
chain: EVQLVESGGGLVQPGGSLRLSCAASGRTFITYAIGWFRQAPGKGREFVSAISWSGSMTSYADSVKGRFTISRDNAKNTLYLQMNSLRPEDTAVYYCAAHRGAIAPIAQSVYTNWGQGTLVTVSS[omitted - human IgG4 Fc with changes]
With B2 the EC50 [1] was 1.82 nM and the EC50 [2] was ~9.57 nM.

B3: sdAb-PDL1a-IgG4PE (Fc fusion)
chain: EVQLVESGGGLVQPGGSLRLSCAASGRTFVTYGMGWFRQAPGKGREFVSAISWSGSMTSYGDSVKGRFTISRDNAKNTLYLQMNSLRPEDTAVYYCAAALGAVVYTTREPYTYWGQGTLVTVSS[omitted - human IgG4 Fc with changes]
B3 gave an EC50 [1] of 2.58 nM and an EC50 [2] of ~9.77 nM.
